# PubChem BioAssay AID1347417 (National Center for Advancing Translational Sciences (NCATS), 2020)
# In all, about 120,000 compounds went through this assay and about 5,300 (4.4%) were called active. The inconclusive results got no clear call from the source; some entries with a clear call stand among them for comparison. Calls follow the shape of the dose curve; as a rule, active = well fitted inhibition curve with a large enough effect; inconclusive = small, poorly fitted or top-dose-only effect; inactive = no such curve, though single readings can be large or run the other way. Potencies of inconclusive entries are doubtful fits and often do not repeat.
# Experiment: qHTS Primary assay for Inhibitors of Plasmodium falciparum Dd2 growth in vitro; also: nearly all actives have a fitted effect of over 65% in size;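 as to activity, negative = inhibition: plate controls were DMSO vehicle for no effect and reference drug for full effect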
# Details: P. falciparum Dd2 growth, SYBR Green, 72 h; activity, negative = inhibition: at 28.9 µM (top of the series) unless noted; series mostly up to 28.9 µM
# How it was run: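 Readout: SYBR Green fluorescence, 485 nm excitation, 535 nm emission, after ~16 h lysis at 37C. Before that, Dd2-infected red cells (2.5% hematocrit) grew 72 h with compound, 29 uM top final concentration.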
# Potency is read from the fitted curve at half-maximal effect; tags tell the direction and shape of the fitted curve.
SMILES,Potency,"activity, negative = inhibition",outcome
COc1ccc(-c2nc3c(c(SCC(=O)Nc4ccccc4OC)n2)Cc2cccc(C)c2O3)cc1,active: 11.2 µM,–,–
CCOc1ccc(CNC(=O)c2cccn2-c2nnc(N3CCCCC3)s2)cc1OC,"inconclusive: 4.47 µM [inhibitor, partial curve, poor fit]",–,–
CN1CCN(C(CN)C2CCCCC2)CC1 (configuration not stated),active: 28.2 µM,–,–
Cc1ccc(CN2CCC(N3CC(OCC4CC4)C34CCOCC4)CC2)cc1C (configuration not stated),"inconclusive: 14.1 µM [inhibitor, partial curve, poor fit]",–,–
CC1(C)C(=O)N(CC2CCOCC2)[C@H]2CN(Cc3cccs3)C[C@@H]2[S+]1(=O)[O-],–,inactive: 39.3% [at 44.1 µM],–
CC1CCN(C(=O)c2ccccc2OCC2CCCN(Cc3nccs3)C2)CC1 (configuration not stated),"inconclusive: 20 µM [inhibitor, single point]",–,–
CNC(=O)[C@@H]1C[C@H](Oc2ccccc2)CN1C(=O)COc1ccc(F)cc1,–,inactive: -11.9%,–
CCc1ccccc1NC(=O)C(CC)Oc1ccccc1-c1nnc(-c2ccccc2)o1 (configuration not stated),"inconclusive: 17.8 µM [inhibitor, partial curve, poor fit]",–,–
O=C1CCN(S(=O)(=O)c2ccccc2)CCCN(C(=O)Cc2c[nH]c3ccccc23)CCN1,–,inactive: -28%,–
CC(=O)N1CCOc2cc(S(=O)(=O)Nc3c(C)cccc3C(C)C)c(Cl)cc21,"inconclusive: 10 µM [inhibitor, single point]",–,–
COc1ccccc1-c1nc(N2CCOCC2)cc2c1CN(c1ccccc1)C2=O,"inconclusive: 10 µM [inhibitor, partial curve, poor fit]",–,–
CN(C(=O)CN1CCC2(CC1)C(C(=O)O)CC(=O)N2C)c1ccccc1 (configuration not stated),–,inactive: -7.11%,–
O=C1NCc2ccccc2CC12CCN(Cc1cccc(OC(F)(F)F)c1)C2 (configuration not stated),"inconclusive: 11.2 µM [inhibitor, single point]",–,–
Cc1ccc(-n2c(C3CCN(C(=O)COc4cccc(C)c4)CC3)n[nH]c2=O)cc1,"inconclusive: 7.94 µM [inhibitor, single point]",–,–
CCc1nc(-c2ccccc2)n2cc[nH]c(=O)c12,–,–,inactive
COc1ccc(N2CCN(C(=O)C(C)n3c(=O)cc(C(F)(F)F)c4c(C)nn(C)c43)CC2)cc1 (configuration not stated),"inconclusive: 2 µM [inhibitor, full curve, poor fit]",–,–
COCc1nncn1C1CCN(C(=O)c2ccc(C)c(C)c2)CC1,"inconclusive: 1.78 µM [inhibitor, partial curve]",–,–
CC[C@@H]1[C@H](NC(=O)C2(c3ccc(S(C)(=O)=O)cc3)CCC2)[C@@H]2CCO[C@H]12,–,inactive: -7.39%,–
O=C(NC1CCN(c2cc(-c3ccccc3)[nH]n2)CC1)c1cccc(F)c1,"inconclusive: 3.98 µM [inhibitor, single point]",–,–
COc1ccc(CN2C[C@@H](CO)[C@H](c3ccncc3)C2)c(OC)c1,"inconclusive: 20 µM [inhibitor, single point]",–,–
COc1ccccc1CNS(=O)(=O)c1ccc2c(c1)CC(C)N2C(=O)C1CCC1 (configuration not stated),"inconclusive: 0.0282 µM [inhibitor, full curve]",–,–
COCCCNC(=O)c1ccc2c(c1)n(Cc1ccccc1)c(=O)c1ccnn12,"inconclusive: 8.91 µM [inhibitor, single point]",–,–
C=CCNC(=O)C(NC(=O)c1ccc(OC)cc1)C1CCN(C(=O)c2cccc(OC)c2)CC1 (configuration not stated),"inconclusive: 7.08 µM [inhibitor, single point]",–,–

SMILES,Potency,"activity, negative = inhibition",outcome
COCCCNC(=O)CCC[C@@H]1[C@H]2CCCN3CCC[C@@H](CN1C(=O)c1ccccc1)[C@@H]23,–,–,inactive
Cc1ccc(Sc2c(C)nn(C(=O)c3ccc(Br)cc3)c2C)cc1,–,inactive: 26.9%,–
O=C(CCC1CCCC1)NCc1nnc2c(-c3nc(C4CC4)no3)cccn12,"inconclusive: 1.41 µM [inhibitor, single point]",–,–
COc1cccc(C(=O)N2C(C(=O)NCC(C)C)COC23CCN(C(=O)c2ccc(F)cc2)CC3)c1 (configuration not stated),"inconclusive: 3.98 µM [inhibitor, single point]",–,–
O=C(CSC1=Nc2ccccc2N=C(c2ccc(F)cc2)C1)Nc1ccc(Cl)cc1,"inconclusive: 12.6 µM [inhibitor, single point]",–,–
O=C(CCC1CCCN(S(=O)(=O)c2ccc(F)cc2)C1)NCCN1CCOCC1 (configuration not stated),–,inactive: -18.6%,–
COc1cccc(NC(=O)c2c(N3CCCC3=O)c3cc(C)ccc3n2C)c1,"inconclusive: 20 µM [inhibitor, partial curve, poor fit]",–,–
Cn1cccc1CN1CCC2(CC1)C(=NC1CCCC1)NC(=O)N2c1cc(F)cc(F)c1,"inconclusive: 8.91 µM [inhibitor, single point]",–,–
CN(Cc1ccccc1)C(=O)Cc1ccc(N(Cc2ccccc2)C(=O)c2ccco2)cc1,"inconclusive: 7.08 µM [inhibitor, partial curve, poor fit]",–,–
CN1C[C@@H](NS(=O)(=O)c2ccc(F)cc2)C[C@H]1c1nc(-c2cccnc2)no1,–,inactive: -11.3% [at 44.1 µM],–
CC1(C(=O)NC2CCCCC2)Cc2ccccc2C(=O)N1Cc1ccc(F)cc1 (configuration not stated),–,inactive: 19.4%,–
O=C(CC(c1ccccc1)c1ccccc1F)N1CCN(c2ccncc2)CC1 (configuration not stated),"inconclusive: 17.8 µM [inhibitor, single point]",–,–
Cn1nc(C2CCN(C(=O)c3ccccc3)CC2)c2c1CCOC2,"inconclusive: 1.41 µM [inhibitor, single point]",–,–
COc1ccc2[nH]c(=O)c(CN(C(=O)c3cccc(Cl)c3)c3cccc(C)c3)cc2c1,"inconclusive: 10 µM [inhibitor, single point]",–,–
CC(=O)Nc1ccccc1-c1c(C)nn2c1N(Cc1ccccc1)CCC2,–,–,inactive [at 44.1 µM]
O=C(NCCc1cnc[nH]1)c1ccc2nc(-c3ccc(F)cc3)cn2c1,active: 10 µM,–,–
Cn1nccc1C(=O)N1CCC(N2CC(OCC3CC3)C23CCOCC3)CC1 (configuration not stated),–,inactive: -20.3%,–
C=CCCC(CN1CCCOCC1)Oc1cc(CCC)nc(C)n1 (configuration not stated),"inconclusive: 10 µM [inhibitor, single point]",–,–
CCN1CCN(c2ncc3c(n2)CCN(Cc2ccc(OC)c(OC)c2)C3)CC1,"inconclusive: 7.94 µM [inhibitor, partial curve]",–,–
COCCNC(=O)[C@H]1C[C@H](Oc2cccnc2)CN1C(=O)NCC(C)C,–,inactive: 20.3%,–
CCc1ccc(CNC(=O)c2ccc3c(c2)N(CC)C2CCCCCN2C3=O)cc1 (configuration not stated),"inconclusive: 3.98 µM [inhibitor, partial curve, poor fit]",–,–
Cc1cc2c(n1-c1ccc(C(=O)NCCc3ccccc3)cc1)CCC(C)C2 (configuration not stated),–,inactive: -20.9%,–
Cc1cc(S(=O)(=O)N2CCC(N(C(=O)C3CC3)C3CCOCC3)CC2)ccc1Cl,–,–,inactive

SMILES,Potency,"activity, negative = inhibition",outcome
CC1=C[C@@H](CNC(=O)CC(C)(C)C)[C@H](C(C)C)C[C@H]1CC(=O)NC1CCCC1,"inconclusive: 17.8 µM [inhibitor, single point]",–,–
CN(CC(O)COc1cccc(CNCCc2ccc(F)cc2)c1)C1CCCCC1 (configuration not stated),active: 3.98 µM,–,–
Cc1nc(-c2ccco2)cc([C@H]2CN3CC[C@H]2C[C@@H]3CNC(=O)C2CCC2)n1,"inconclusive: 0.501 µM [inhibitor, full curve, poor fit]",–,–
Cc1cccc(Cc2c(C)nc3nc(SCc4ccccc4F)nn3c2C)c1,"inconclusive: 2.82 µM [inhibitor, partial curve, poor fit]",–,–
Fc1ccc(-c2ccc(CNCc3ccco3)o2)cc1,"inconclusive: 20 µM [inhibitor, single point]",–,–
Cc1nn(Cc2ccccc2)c(C)c1[C@@H]1C=C[C@@H](NS(=O)(=O)c2ccccc2)C1,"inconclusive: 2.82 µM [inhibitor, single point]",–,–
COc1cc(-c2oc3ccc(C)cc3c(=O)c2O)cc(OC)c1OC,active: 12.6 µM,–,–
COc1ccccc1NC(=O)CSc1oc(-c2ccccc2)nc1S(=O)(=O)c1ccccc1,"inconclusive: 17.8 µM [inhibitor, single point]",–,–
COc1ccc(-c2cc(N3CCCC(NC(=O)c4cccs4)C3)n[nH]2)cc1 (configuration not stated),–,inactive: -16%,–
CCN(C(=O)CN1C(=O)NC(c2ccccc2Cl)C2=C1COC2=O)c1cccc(C)c1 (configuration not stated),"inconclusive: 11.2 µM [inhibitor, partial curve, poor fit]",–,–
CN(CCC(O)c1ccccc1)C(=O)c1ccc2oc(-c3cccc(F)c3)nc2c1 (configuration not stated),–,–,inactive
CCCC(=O)N1Cc2ccccc2CC2(CCCCN2CC2CCOCC2)C1 (configuration not stated),active: 8.91 µM,–,–
COc1ccc(-c2cc(N3CCCN(C(=O)CCc4ccccc4)CC3)n[nH]2)cc1,"inconclusive: 2 µM [inhibitor, partial curve, poor fit]",–,–
C=CCN(C)C[C@H]1CN2CC[C@H]1C[C@@H]2CNS(=O)(=O)c1ccc(C)cc1,active: 11.2 µM,–,–
CCN1C(=O)c2ccccc2S(=O)c2ccc(C(=O)N3CCN(c4ccccc4OC)CC3)cc21 (configuration not stated),active: 5.01 µM,–,–
N#Cc1cccc(C(=O)NC2CCN(c3cc(-c4cccs4)[nH]n3)CC2)c1,"inconclusive: 1.12 µM [inhibitor, full curve, poor fit]",–,–
O=C(c1cc(-c2cnccc2Cl)c2cccn2n1)N1CCCC1,–,inconclusive: -40.2% [inhibitor],–
CCN1C(=O)CCN(C(=O)Cc2cccc(F)c2)CC12CCOCC2,–,inactive: 5.13%,–
CN(Cc1ccccc1)C1CCOC2(CCN(C(=O)NCCc3ccccc3)CC2)C1 (configuration not stated),"inconclusive: 2.24 µM [inhibitor, single point]",–,–
COc1cccc(C(O)c2nc(C(=O)Nc3ccc4c(c3)CC(=O)N4)c(C)o2)c1 (configuration not stated),"inconclusive: 22.4 µM [inhibitor, single point]",–,–
COc1ccccc1CN1CCNc2cc(-c3ccccc3)ncc2C1,"inconclusive: 12.6 µM [inhibitor, single point]",–,–
